# In all, about 410,000 compounds went through this assay and about 530 (0.13%) were called active. The inconclusive results got no clear call from the source; some entries with a clear call stand among them for comparison. The call rests on the fitted dose curve; in most records, active means well fitted inhibition curve with a large enough effect; inconclusive means small, poorly fitted or top-dose-only effect, or another doubt; inactive means no such curve, though single readings can be large or run the other way. Potencies beside an inconclusive call are fits to weak or partial responses and may not hold up.
# Experiment: qHTS of GLP-1 Receptor Inverse Agonists: Cytotox Screen
# Settings: HEK293 cAMP-luciferase reporter cells, luminescence, 24 h; activity change, negative = inhibition: at 38.3 µM (top of the series) unless noted
# Summary of the method: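 To flag toxic compounds, the library was rerun on cells for 24 hr at 37 deg C and 5% CO2. Viability-linked luminescence was captured 12 min after adding luciferase detection reagent.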
# On the % scale 0 is the no-effect control and ±100 the full control effect; potency means the concentration at half of the fitted maximal effect.
SMILES,Potency,"activity change, negative = inhibition"
O=C(CCl)NCc1c(Cl)cccc1-n1cccc1,"inconclusive: 7.08 µM [inhibitor, partial curve, poor fit]",–
Cc1cccc(C(=O)N[C@H](C(=O)Nc2nc3ccccc3[nH]2)C(C)C)c1,"inconclusive: 2.82 µM [inhibitor, partial curve, poor fit]",–
CNC(=S)N/N=C(\C)c1cccc([N+](=O)[O-])c1,"inconclusive: 20 µM [inhibitor, single point]",–
COc1ccc2nc(C)cc(Sc3nc4ccccc4s3)c2c1,"inconclusive: 28.2 µM [inhibitor, single point]",–
Fc1ccc(F)c(NC(=S)NCCc2ccccc2)c1,–,inactive: -7.56% [at 7.66 µM]
CCc1ccc(/C=C/C(=O)c2cc(Br)ccc(=O)c2O)cc1,"inconclusive: 11.2 µM [inhibitor, partial curve]",–
CC(C)(C)C1=NN(c2ccc([N+](=O)[O-])cc2)C(c2ccccc2)C1 (stereo not drawn),–,inactive: 1.28%
C#CCOc1c(Cl)cc(/C=N/NC(N)=S)cc1OCC,"inconclusive: 28.2 µM [inhibitor, single point]",–
N/C(=N\S(=O)(=O)c1cc(C(F)(F)F)cc(C(F)(F)F)c1)c1ccc(Cl)cc1,"inconclusive: 28.2 µM [inhibitor, single point]",–
Cc1ccc(C)c(S(=O)(=O)N2CCCC2CNC(=O)C(=O)Nc2ccccc2)c1 (stereo not drawn),–,inactive: 1.81%
Cc1ccc2oc(C(=O)N3CCCCCC3)c(C)c2c1,–,inactive: 13.7%
Cc1cccc2c(N=Nc3ccc(S(=O)(=O)Nc4cccc(Cl)c4)cc3[N+](=O)[O-])c(O)[nH]c12,"inconclusive: 28.2 µM [inhibitor, single point]",–
COc1ccc(NS(=O)(=O)c2cn(C)cn2)c(OC)c1,"inconclusive: 28.2 µM [inhibitor, single point]",–
N=c1sccn1CC(=O)Nc1ccc(Cl)c(S(=O)(=O)N2CCOCC2)c1,"inconclusive: 7.08 µM [inhibitor, partial curve, poor fit]",–
O=C(NCc1nnc(SCC(=O)N2CCCc3ccccc32)o1)c1ccco1,"inconclusive: 0.501 µM [inhibitor, full curve, poor fit]",–
O=C(Nc1ccccc1Cl)/C(Cl)=C(\Cl)S(=O)c1ccccc1 (stereo not drawn),"inconclusive: 3.16 µM [inhibitor, partial curve, poor fit]",–
Cc1ccc(C(=O)NCCNc2ccc([N+](=O)[O-])cc2C(F)(F)F)cc1,"inconclusive: 10 µM [inhibitor, single point]",–
Cc1cccc(C(=O)N/N=C/C(C)Cc2ccc3c(c2)OCO3)c1 (stereo not drawn),"inconclusive: 22.4 µM [inhibitor, single point]",–
